From PubChem BioAssay AID588855 (National Center for Advancing Translational Sciences (NCATS), 2011)
Hit rate of the full screen: of about 410,000 compounds, about 5,000 (1.2%) were called active. The shares of active, inactive and inconclusive entries below differ from those in the screen. Calls come from the whole dose curve; as a rule, active = well fitted inhibition curve with a large enough effect; inconclusive = small, poorly fitted or top-dose-only effect; inactive = no such curve, though single readings can be large or run the other way. Where the call is inconclusive, the potency comes from a doubtful curve fit.

Experiment: qHTS for Inhibitors of TGF-b; note: nearly all actives have a fitted effect of over 65% in size
Conditions: HepG2 CAGA-GFP TGF-b/SMAD3 reporter, GFP fluorescence, 18 h, TGF-beta stimulated, 500 pg/mL final; series mostly up to 46.1 µM
Procedure, shortened: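 Read-out: total well GFP (ex488/em500-530) summed from mean per-cell fluorescence. Cells: HEPG2 CAGA-GFP, 1% FBS DMEM, 18 h at 37 degrees C with 500 pg/mL final TGF-beta. Unstimulated wells served as the full-inhibition control; stimulated DMSO wells = 0%.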
Potency is the fitted concentration of half-maximal effect; tags give direction and shape of the fitted curve.

**Q.** With `CCCN(CC(=O)Nc1ccc(F)c(F)c1F)C(=O)C1CC(=O)N(Cc2ccccc2)C1` (stereo not drawn) as the molecule, how does the Potency read?
**A.** inconclusive: 25.1 µM [inhibitor, single point]

**Q.** Which Potency does the source give for `Cc1c(C(=O)NCc2ccc3c(c2)OCO3)sc(=O)n1Cc1cccc(F)c1` here?
**A.** inactive

**Q.** For `COc1ccc(C2CC(O)(c3ccccc3)Oc3c(C)ccc(C(C)C)c32)cc1` (stereo not drawn), which Potency is on record?
**A.** active: 15.8 µM

**Q.** With `O=C(CN1C(=O)C2CCCCC2C1=O)OCC(=O)c1ccc(F)cc1` (stereo not drawn) as the molecule, how does the Potency read?
**A.** inactive

**Q.** Which Potency does the source give for `COc1ccc(-c2noc(CCCC(=O)NC3CCCC3)n2)cc1` here?
**A.** inactive

**Q.** For `COC(=O)CSc1n[nH]c(-c2ccncc2)n1`, which Potency is on record?
**A.** inactive

**Q.** Which Potency does the source give for `CCn1ccc2cc(S(=O)(=O)N3CCCN(C(=O)Nc4ccc(C)c(F)c4)CC3)ccc21` here?
**A.** inconclusive: 12.6 µM [inhibitor, partial curve, poor fit]

**Q.** With `Cc1ccc(C)c(N(C(=O)c2snc(C(N)=O)c2N)C(C(=O)NCC2CCCO2)c2ccc(C)o2)c1` (stereo not drawn) as the molecule, how does the Potency read?
**A.** inconclusive: 6.31 µM [inhibitor, full curve, poor fit]

**Q.** With `COC(=O)[C@H](Cc1ccccc1)NC(=O)N1CCN(Cc2ccccc2)CC1` as the molecule, how does the Potency read?
**A.** inactive

**Q.** Which Potency does the source give for `Cc1ccc(C(=O)C2CCN(CC(=O)Nc3nc(C)cs3)CC2)cc1` here?
**A.** inconclusive: 4.47 µM [inhibitor, full curve]

**Q.** For `Cc1ccc(N(Cc2ccccc2)C(=O)c2ccc(Cl)c(S(=O)(=O)N3CCOCC3)c2)cc1`, which Potency is on record?
**A.** inconclusive: 7.08 µM [inhibitor, full curve, poor fit]

**Q.** Which Potency does the source give for `CC(C)=CCc1c(O)c(CC=C(C)C)c2c(c1O)C(=O)CC(c1ccc(O)cc1)O2` (stereo not drawn) here?
**A.** inconclusive: 35.5 µM [inhibitor, single point]

**Q.** With `COc1ccccc1Nc1c2c(nc3ccc(NC(=O)c4cccc(OC)c4OC)cc13)CCCC2` as the molecule, how does the Potency read?
**A.** inconclusive: 35.5 µM [inhibitor, partial curve, poor fit]

**Q.** Which Potency does the source give for `CN(Cc1ccccc1F)C(=O)c1cccc(NC(=O)CC2SC(N3CCCCC3)=NC2=O)c1` (stereo not drawn) here?
**A.** inactive

**Q.** For `O=c1oc2ccccc2c(NCc2cccc(F)c2)c1[N+](=O)[O-]`, which Potency is on record?
**A.** inconclusive: 5.01 µM [inhibitor, full curve]

**Q.** Which Potency does the source give for `COc1ccc(CCNC(=O)c2cnc3sc(N4CCC(C)CC4)nn3c2=O)cc1OC` here?
**A.** inactive

**Q.** For `Cc1ccccc1NC(=O)CC(O)(C(F)(F)F)C(F)(F)F`, which Potency is on record?
**A.** inconclusive: 6.31 µM [inhibitor, single point]

**Q.** With `CCN(Cc1cc(=O)oc2cc(C)ccc12)c1ccccc1` as the molecule, how does the Potency read?
**A.** inconclusive: 35.5 µM [inhibitor, single point]

**Q.** Which Potency does the source give for `NC(=O)C1CCN(Cc2nc3ccccc3c(=O)[nH]2)CC1` here?
**A.** inactive

**Q.** With `COc1ccc(-c2noc(CSc3nnc(Cc4ccccc4)n3-c3ccc(Cl)cc3)n2)cc1` as the molecule, how does the Potency read?
**A.** inconclusive: 35.5 µM [inhibitor, single point]

**Q.** For `COC(=O)c1ccc2c(=O)n(CCCCCC(=O)N3CCN(c4cc(Cl)ccc4C)CC3)c(=O)[nH]c2c1`, which Potency is on record?
**A.** inconclusive: 7.94 µM [inhibitor, partial curve]

**Q.** With `COC(=O)c1cccc(Nc2c3c(nc4ccccc24)CCC3)c1` as the molecule, how does the Potency read?
**A.** inactive

**Q.** For `O=C(Nc1cccc(-c2nc3ccccc3s2)c1)C1=COCCO1`, which Potency is on record?
**A.** inactive

**Q.** With `CC(C)(C)C1CCc2c(sc(NC(=O)CCC(=O)O)c2C(=O)Nc2ccccc2C(F)(F)F)C1` (stereo not drawn) as the molecule, how does the Potency read?
**A.** inconclusive: 17.8 µM [inhibitor, single point]

**Q.** Which Potency does the source give for `Cc1ccnc(NC(=O)Cn2c(=O)oc3cc(S(=O)(=O)N4CCCC4)ccc32)c1` here?
**A.** inactive

**Q.** For `Cc1ccc(N=Cc2cc3c(cc2[N+](=O)[O-])OCO3)cc1[N+](=O)[O-]`, which Potency is on record?
**A.** inconclusive: 15.8 µM [inhibitor, single point]

**Q.** With `Cc1ccc(-c2nnc(Sc3nc4ccccc4o3)c3ccccc23)cc1` as the molecule, how does the Potency read?
**A.** inconclusive: 1.41 µM [inhibitor, full curve, poor fit]

**Q.** Which Potency does the source give for `COc1cccc(CNCCc2c[nH]c3ccccc23)c1OCc1ccccc1` here?
**A.** inconclusive: 35.5 µM [inhibitor, single point]

**Q.** Which Potency does the source give for `COC(=O)C(Cc1c[nH]c2ccccc12)NC(=O)c1ccc2nc[nH]c2c1` (stereo not drawn) here?
**A.** inactive

**Q.** For `Cc1ccccc1C(=O)Nc1ccc2nc(Nc3cccc(C(F)(F)F)c3)cc(C)c2c1`, which Potency is on record?
**A.** active: 14.1 µM

**Q.** Which Potency does the source give for `CCc1nc2c(OCC3CCCCC3)cccn2c1N(C)C(=O)c1ccc(C)cc1` here?
**A.** inconclusive: 25.1 µM [inhibitor, single point]

**Q.** Which Potency does the source give for `CCCCN(C(=O)c1ccc(S(=O)(=O)N2CCOCC2)cc1)C1CCS(=O)(=O)C1` (stereo not drawn) here?
**A.** inconclusive: 5.62 µM [inhibitor, single point]

**Q.** For `COc1ccc(Cc2nnc(Nc3ccc(C)cc3C)[nH]c2=O)cc1`, which Potency is on record?
**A.** inactive

**Q.** For `Cc1ccc(OCCn2c(C3CC(=O)N(Cc4ccccc4)C3)nc3ccccc32)cc1` (stereo not drawn), which Potency is on record?
**A.** inconclusive: 35.5 µM [inhibitor, single point]

**Q.** For `CCCn1cnc2c(N)c(C)c(C)cc21`, which Potency is on record?
**A.** inconclusive: 25.1 µM [inhibitor, partial curve, poor fit]

**Q.** Which Potency does the source give for `O=C(Cc1ccccc1Cl)N1CCN(c2ncccn2)CC1` here?
**A.** inactive

**Q.** For `CC(NS(=O)(=O)OCC(Cl)(Cl)Cl)c1ccc(Br)cc1` (stereo not drawn), which Potency is on record?
**A.** inconclusive: 35.5 µM [inhibitor, single point]

**Q.** Which Potency does the source give for `CCN(CC(=O)Nc1ccc(NC(C)=O)cc1)C(=O)CCCOc1ccc(C(C)(C)C)cc1` here?
**A.** inconclusive: 25.1 µM [inhibitor, single point]

**Q.** With `C[C@H]1CN([C@@H](C)CO)C(=O)Cc2cc(NS(=O)(=O)c3ccc(Cl)cc3)ccc2O[C@@H]1CN(C)C(=O)Nc1cccc2ccccc12` as the molecule, how does the Potency read?
**A.** inactive

**Q.** For `CCOC(=O)c1cccc(NC(=O)N2CCC(CN3CCc4ccccc4C3)CC2)c1`, which Potency is on record?
**A.** inconclusive: 3.16 µM [inhibitor, partial curve]

**Q.** Which Potency does the source give for `Fc1ccc(NC(=S)Nc2ccc(Cl)cc2)cc1` here?
**A.** inconclusive: 35.5 µM [inhibitor, single point]

**Q.** For `COc1cccc(Cn2c(CNS(=O)(=O)c3ccc4c(c3)CCCC4)nc3cccnc32)c1`, which Potency is on record?
**A.** inconclusive: 14.1 µM [inhibitor, partial curve, poor fit]

**Q.** With `COc1cccc(-c2noc(C3CCCN(C(=O)c4ccccc4OC)C3)n2)c1` (stereo not drawn) as the molecule, how does the Potency read?
**A.** inconclusive: 35.5 µM [inhibitor, single point]
